# Measured values from the supplement of paper PMC10037445.
# Values joined by “and” are separate entries in the source; they are usually repeats but may differ in a detail not shown here. Equal entries are not always repeated. Whole data set: some 2,900 compounds, median “NF-kB SEAP reporter activity, fold change vs agonist alone” near 0.99, cut for the highest 2% near 2.6. Some of the results follow.
# Tests used:
# [1] = test system: RAW-Dual; experiment: NF-kB SEAP reporter activity, fold change vs agonist alone; cytotoxicity flag (confluency mask): not cytotoxic; higher = enhanced NF-kB activity
# In short: (§1)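 After 50 nL of library stock was delivered by pin tool to RAW-Dual macrophages (50,000 cells/well, DMEM, 384-well plates), a PRR agonist was added 1 h later and the plates were kept at 37 °C, 5% CO2. Twenty hours later, IRF was read from supernatant by QuantiLuc luminescence and NF-κB by QuantiBlue absorbance at 620 nm. Reporter activity is stated as fold change over agonist-alone wells. Wells with IncuCyte confluency under 70% of agonist controls in both mask sets were counted as cytotoxic.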
# [2] = test system: RAW-Dual; experiment: NF-kB SEAP reporter activity, fold change vs agonist alone; higher = enhanced NF-kB activity; conditions: library stock concentration (final ~1000-fold dilution): 10 mM
# In short: as §1
# [3] = test system: RAW-Dual; experiment: NF-kB SEAP reporter activity, fold change vs agonist alone; cytotoxicity flag (confluency mask): cytotoxic (confluency <70% of control); higher = enhanced NF-kB activity
# In short: as §1
# [4] = agonist: ODN 1826 (TLR9) 0.5 ug/mL
# [5] = agonist: Pam2CSK4 (TLR2/6) 0.1 ug/mL
# [6] = agonist: Pam3CSK4 (TLR2/1) 0.1 ug/mL
# [7] = cytotoxicity flag (confluency mask): not cytotoxic, agonist: Imiquimod (TLR7) […]
# [8] = cytotoxicity flag (confluency mask): not cytotoxic, agonist: MPLA (TLR4) […]
smiles,measurement,setting,value
CC(C)(C)c1ccc(S(=O)(=O)NCc2ccc(C(=O)Nc3cccnc3)cc2)cc1 (library stock concentration (final ~1000-fold dilution): 10 mM),NF-kB SEAP reporter activity,[1]; agonist: LPS (TLR4) 0.1 ug/mL,0.67
same,NF-kB SEAP reporter activity,[1]; [4],1.1
same,NF-kB SEAP reporter activity,[1]; [5],0.834
same,NF-kB SEAP reporter activity,[1]; [6],0.706
CC(C)(C)c1ccc(S(=O)(=O)NCc2ccc(C(=O)Nc3cccnc3)cc2)cc1,NF-kB SEAP reporter activity,[2]; [7],0.865
same,NF-kB SEAP reporter activity,[2]; [8],0.908
Cc1ccccc1C(=O)N1CCc2cc(-c3nc(NC(=O)Cc4ccc5c(c4)OCO5)sc3C)ccc21 (library stock concentration (final ~1000-fold dilution): 10 mM),NF-kB SEAP reporter activity,[1]; agonist: LPS (TLR4) 0.1 ug/mL,1.34 and 1.45
same,NF-kB SEAP reporter activity,[1]; [4],0.971 and 0.758
same,NF-kB SEAP reporter activity,[1]; [5],0.716 and 0.692
same,NF-kB SEAP reporter activity,[1]; [6],0.695 and 0.61
COc1c(OC)c2occc2c2oc(=O)ccc12 (library stock concentration (final ~1000-fold dilution): 10 mM),NF-kB SEAP reporter activity,[1]; agonist: LPS (TLR4) 0.1 ug/mL,0.937
same,NF-kB SEAP reporter activity,[1]; [4],0.898
same,NF-kB SEAP reporter activity,[1]; [5],1.05
same,NF-kB SEAP reporter activity,[1]; [6],1.1
COc1c(OC)c2occc2c2oc(=O)ccc12,NF-kB SEAP reporter activity,[2]; [7],0.982
same,NF-kB SEAP reporter activity,[2]; [8],1.08
CCCCC(C=O)NC(=O)C(CC(C)C)NC(=O)C(CC(C)C)NC(C)=O (configuration not stated) (library stock concentration (final ~1000-fold dilution): 10 mM),NF-kB SEAP reporter activity,[1]; agonist: LPS (TLR4) 0.1 ug/mL,0.819
same,NF-kB SEAP reporter activity,[1]; [4],1.45
same,NF-kB SEAP reporter activity,[1]; [5],0.395
same,NF-kB SEAP reporter activity,[1]; [6],1.06
CCCCC(C=O)NC(=O)C(CC(C)C)NC(=O)C(CC(C)C)NC(C)=O (configuration not stated),NF-kB SEAP reporter activity,[2]; [7],1.24
same,NF-kB SEAP reporter activity,[2]; [8],1.68
O=C(NOCC(O)CO)c1ccc(F)c(F)c1Nc1ccc(I)cc1F (configuration not stated) (library stock concentration (final ~1000-fold dilution): 10 mM),NF-kB SEAP reporter activity,[1]; agonist: LPS (TLR4) 0.1 ug/mL,0.242
same,NF-kB SEAP reporter activity,[1]; [4],0.221
same,NF-kB SEAP reporter activity,[1]; [5],0.106
same,NF-kB SEAP reporter activity,[1]; [6],0.136
O=C(NOCC(O)CO)c1ccc(F)c(F)c1Nc1ccc(I)cc1F (configuration not stated),NF-kB SEAP reporter activity,[2]; [7],0.195
same,NF-kB SEAP reporter activity,[2]; [8],0.203
CCN1/C(=C/C(C)=O)Sc2ccc(OC)cc21 (library stock concentration (final ~1000-fold dilution): 10 mM),NF-kB SEAP reporter activity,[1]; agonist: LPS (TLR4) 0.1 ug/mL,0.97
same,NF-kB SEAP reporter activity,[1]; [4],0.789
same,NF-kB SEAP reporter activity,[1]; [5],1.06
same,NF-kB SEAP reporter activity,[1]; [6],1.6
CCN1/C(=C/C(C)=O)Sc2ccc(OC)cc21,NF-kB SEAP reporter activity,[2]; [7],1.01
same,NF-kB SEAP reporter activity,[2]; [8],1.29
CCCCOc1ccc(CC(=O)NO)cc1,NF-kB SEAP reporter activity,[2]; [7],1.57
same,NF-kB SEAP reporter activity,[2]; [8],1.4
CCCCOc1ccc(CC(=O)NO)cc1 (library stock concentration (final ~1000-fold dilution): 10 mM),NF-kB SEAP reporter activity,[1]; agonist: LPS (TLR4) 0.1 ug/mL,2.17
same,NF-kB SEAP reporter activity,[1]; [4],1.51
same,NF-kB SEAP reporter activity,[1]; [5],1.53
same,NF-kB SEAP reporter activity,[1]; [6],1.29
Oc1c(Cl)cc(Cl)cc1Sc1cc(Cl)cc(Cl)c1O (library stock concentration (final ~1000-fold dilution): 10 mM),NF-kB SEAP reporter activity,[3]; agonist: LPS (TLR4) 0.1 ug/mL,3.19
same,NF-kB SEAP reporter activity,[3]; [4],1.08
same,NF-kB SEAP reporter activity,[3]; [5],0.362
same,NF-kB SEAP reporter activity,[3]; [6],0.801
Oc1c(Cl)cc(Cl)cc1Sc1cc(Cl)cc(Cl)c1O,NF-kB SEAP reporter activity,"[2]; cytotoxicity flag (confluency mask): cytotoxic (confluency <70% of control), agonist: Imiquimod (TLR7) […]",1.81
same,NF-kB SEAP reporter activity,"[2]; cytotoxicity flag (confluency mask): cytotoxic (confluency <70% of control), agonist: MPLA (TLR4) […]",1.6
Cc1cc(C)cc(NC(=O)Cc2ccc(OC(C)(C)C(=O)O)cc2)c1,NF-kB SEAP reporter activity,[2]; [7],1.08
same,NF-kB SEAP reporter activity,[2]; [8],1.27
Cc1cc(C)cc(NC(=O)Cc2ccc(OC(C)(C)C(=O)O)cc2)c1 (library stock concentration (final ~1000-fold dilution): 10 mM),NF-kB SEAP reporter activity,[1]; agonist: LPS (TLR4) 0.1 ug/mL,1.57
same,NF-kB SEAP reporter activity,[1]; [4],1.22
same,NF-kB SEAP reporter activity,[1]; [5],1.14
same,NF-kB SEAP reporter activity,[1]; [6],1.03
CC(C)Cc1ccc(C(C)C(=O)NS(C)(=O)=O)cc1 (configuration not stated) (library stock concentration (final ~1000-fold dilution): 10 mM),NF-kB SEAP reporter activity,[1]; agonist: LPS (TLR4) 0.1 ug/mL,1.09
same,NF-kB SEAP reporter activity,[1]; [4],0.809
same,NF-kB SEAP reporter activity,[1]; [5],1.01
same,NF-kB SEAP reporter activity,[1]; [6],1.01
CC(C)Cc1ccc(C(C)C(=O)NS(C)(=O)=O)cc1 (configuration not stated),NF-kB SEAP reporter activity,[2]; [7],0.933
same,NF-kB SEAP reporter activity,[2]; [8],0.957
O=c1c(O)c(-c2ccccc2)oc2cc(O)cc(O)c12 (library stock concentration (final ~1000-fold dilution): 10 mM),NF-kB SEAP reporter activity,[1]; agonist: LPS (TLR4) 0.1 ug/mL,2.42
same,NF-kB SEAP reporter activity,[1]; [4],1.62
same,NF-kB SEAP reporter activity,[1]; [5],1.12
same,NF-kB SEAP reporter activity,[1]; [6],1.03
O=c1c(O)c(-c2ccccc2)oc2cc(O)cc(O)c12,NF-kB SEAP reporter activity,[2]; [7],2.05
same,NF-kB SEAP reporter activity,[2]; [8],1.52
NC(=O)c1ccc2[nH]c(-c3ccc(Oc4ccc(Cl)cc4)cc3)nc2c1 (library stock concentration (final ~1000-fold dilution): 10 mM),NF-kB SEAP reporter activity,[1]; agonist: LPS (TLR4) 0.1 ug/mL,1.71
same,NF-kB SEAP reporter activity,[1]; [4],1.59
same,NF-kB SEAP reporter activity,[1]; [5],2.1
same,NF-kB SEAP reporter activity,[1]; [6],3.55
NC(=O)c1ccc2[nH]c(-c3ccc(Oc4ccc(Cl)cc4)cc3)nc2c1,NF-kB SEAP reporter activity,[2]; [7],1.47
same,NF-kB SEAP reporter activity,[2]; [8],2.09
CC(=O)O.NCc1ccc(S(N)(=O)=O)cc1,NF-kB SEAP reporter activity,[2]; [7],1.17
same,NF-kB SEAP reporter activity,[2]; [8],1.03
CC(=O)O.NCc1ccc(S(N)(=O)=O)cc1 (library stock concentration (final ~1000-fold dilution): 10 mM),NF-kB SEAP reporter activity,[1]; agonist: LPS (TLR4) 0.1 ug/mL,1.04
same,NF-kB SEAP reporter activity,[1]; [4],1.01
same,NF-kB SEAP reporter activity,[1]; [5],0.927
same,NF-kB SEAP reporter activity,[1]; [6],1.23
NC(=O)c1cccc2cn(-c3ccc(C4CCCNC4)cc3)nc12 (configuration not stated) (library stock concentration (final ~1000-fold dilution): 10 mM),NF-kB SEAP reporter activity,[1]; agonist: LPS (TLR4) 0.1 ug/mL,1.04
same,NF-kB SEAP reporter activity,[1]; [4],0.192
same,NF-kB SEAP reporter activity,[1]; [5],1.07
same,NF-kB SEAP reporter activity,[1]; [6],1.12
NC(=O)c1cccc2cn(-c3ccc(C4CCCNC4)cc3)nc12 (configuration not stated),NF-kB SEAP reporter activity,[2]; [7],0.768
same,NF-kB SEAP reporter activity,[2]; [8],0.991
